± gives the standard deviation of the averaged measurements. The list shows a part of the results.

The subject of the experiment is PfAP2-LT AP2 domain (GST-tagged). Kind of experiment: gcPBM binding intensity (ln(normalized median fluorescence intensity)); higher = stronger DNA binding. The method in brief:
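Binding intensity is defined as the maximum Masliner-normalised natural-log median intensity across replicate spots for either probe orientation. It was measured on an Agilent 4 × 180k array of primer-extended double-stranded 36-bp intergenic genomic probes and negative controls, to which GST-tagged P. falciparum DNA-binding domains made in E. coli were applied for 1 h in 1× PBS with 1% milk, 0.2 mg/ml BSA, 0.5% salmon testes DNA and 0.03% Triton X-100. Detection was by Alexa488 anti-GST antibody and scanning at 488 nm.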
Regarding “TATATACATATATATATATGTATAGATAGATACATT [CACACA_negctrl_site1511]”, the “gcPBM binding intensity (ln)” value turned out to be 8.8 ± 0.36. Turning to “TTTTGAAAAAATTTTTATAAAAGAATAAAATTATTA [XGTACX_negctrl_site570]”, the “gcPBM binding intensity (ln)” value worked out at 7.92 ± 0.42. As for “AATATTTTACAATACACATGCAAATAATATTCTAAA [TGCATGCA_site618]”, the “gcPBM binding intensity (ln)” value was 8.61 ± 0.38.

Turning to “ATATTATTTATGTATGCATGCGGCGAAATGGGCTTG [TGCATGCA_site28]”, the “gcPBM binding intensity (ln)” value amounted to 9.06 ± 0.29. For the sequence “AATGGGTTACACATATGTACATAAAATATAAAAAAT [XGTACX_site3440]”, the “gcPBM binding intensity (ln)” value was 9 ± 0.58. With “TCTCATTTTCCCTAAAAAAAAAAATAAATAAAAATA [TGCATGCA_negctrl_site580]”, the “gcPBM binding intensity (ln)” value was 7.98 ± 0.38. As to “TTTTTCCATATTGTAGCATGCAGTATATATATCATG [TGCATGCA_site530]”, the “gcPBM binding intensity (ln)” value is 8.9 ± 0.35. The value for “ATTTATATATAAATGTGTACATATATATATATAAAC [XGTACX_site7592]” was 9.04 ± 0.38. Turning to “TACCATGTTCAAATTACACACATATAATGCAATATA [CACACA_site7034]”, the “gcPBM binding intensity (ln)” value came out at 8.99 ± 0.37.

For “CTGAAATTAACAAAAGTGCATAAAAATAAAAAATAT [GTGCAC_site9652]”, the “gcPBM binding intensity (ln)” value is 8.9 ± 0.47. As to “ATTGTAAGTAAACACACACACATATATCTGTATTTA [CACACA_site4542]”, the “gcPBM binding intensity (ln)” value turned out to be 9.66 ± 0.37. Consider TCACATTTTGGACACGTGCACATATATTTGATACAT, for which the “gcPBM binding intensity (ln)” value is 9.05 ± 0.45. As for “AAAATTAATTATTACAAAAATGAAAAGACATATTTT [GTGCAC_negctrl_site735]”, the figure is 8.43 ± 0.44; as for “TTTTTTTACAACATTACACACAAATATTCTGGGTTA [CACACA_site3755]”, 9.01 ± 0.39. Turning to “AATATTATATTAAAATGTACAAAAATGAATTACTTT [XGTACX_site1473]”, the “gcPBM binding intensity (ln)” value came out at 8.63 ± 0.51. As for “CAATGCAAGGCTTAAAAAAATGGGCATATTATATAT [GTGCAC_negctrl_site304]”, the “gcPBM binding intensity (ln)” value worked out at 8.67 ± 0.58.

Consider “AAAAAGGAAATTTACACACACATATAATATACATTA [CACACA_site3296]”, for which the “gcPBM binding intensity (ln)” value was 9.31 ± 0.33. As for “ATTTACCAGACCATATGTACATACATAAAACACACA [XGTACX_site3788]”, the “gcPBM binding intensity (ln)” value stood at 9.2 ± 0.43. For “GGAATTGAAAAATCAGCACACACACTAATACATACA [CACACA_site9059]”, the “gcPBM binding intensity (ln)” value came out at 9.69 ± 0.3. On to “AAATGGCAATAATGGACACACAAATGTTGTTATATA [CACACA_site2819]”, for which the “gcPBM binding intensity (ln)” value was 9 ± 0.51. The value for “AATAATTGTTAAAGGTGTACAATACCTACATAAGAA [XGTACX_site4215]” was 8.88 ± 0.5. As for AATATTTCTCATTTTGTGCACTGAAAAATGTAATAT, the figure is 8.7 ± 0.33; as for “TCATATATCCTTATCACACATATAATAAATTCCCTT [CACACA_site4457]”, 8.73 ± 0.41; as for “TTCTTTGCTTTTCAAACACACAAAAGTTATTATAGT [CACACA_site6390]”, 8.82 ± 0.49. For the sequence “GTTCTACAAGCCACTGCATGCTGATATAGAATAAAT [TGCATGCA_site138]”, the “gcPBM binding intensity (ln)” value was 8.73 ± 0.43.

The values are drawn from the supplement of paper PMC11417369.
